# Test results reported in PMC4336329 (PLoS ONE, 2015).
# In all, about 310,000 compounds went through this assay and about 14,000 (4.5%) showed an effect of 50% or more. The effect is printed as a negative number. Some of the results follow.
# Target: human ether-à-go-go-related gene (hERG) potassium channel (human, UniProt Q12809)
# Assay: primary screen, population patch clamp on CHO cells stably expressing hERG
# 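Further: peak tail current of the secondary pulse compared with the same well before compound.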
# human ether-à-go-go-related gene (hERG) potassium channel, sequence (Q12809 whole entry, looked up): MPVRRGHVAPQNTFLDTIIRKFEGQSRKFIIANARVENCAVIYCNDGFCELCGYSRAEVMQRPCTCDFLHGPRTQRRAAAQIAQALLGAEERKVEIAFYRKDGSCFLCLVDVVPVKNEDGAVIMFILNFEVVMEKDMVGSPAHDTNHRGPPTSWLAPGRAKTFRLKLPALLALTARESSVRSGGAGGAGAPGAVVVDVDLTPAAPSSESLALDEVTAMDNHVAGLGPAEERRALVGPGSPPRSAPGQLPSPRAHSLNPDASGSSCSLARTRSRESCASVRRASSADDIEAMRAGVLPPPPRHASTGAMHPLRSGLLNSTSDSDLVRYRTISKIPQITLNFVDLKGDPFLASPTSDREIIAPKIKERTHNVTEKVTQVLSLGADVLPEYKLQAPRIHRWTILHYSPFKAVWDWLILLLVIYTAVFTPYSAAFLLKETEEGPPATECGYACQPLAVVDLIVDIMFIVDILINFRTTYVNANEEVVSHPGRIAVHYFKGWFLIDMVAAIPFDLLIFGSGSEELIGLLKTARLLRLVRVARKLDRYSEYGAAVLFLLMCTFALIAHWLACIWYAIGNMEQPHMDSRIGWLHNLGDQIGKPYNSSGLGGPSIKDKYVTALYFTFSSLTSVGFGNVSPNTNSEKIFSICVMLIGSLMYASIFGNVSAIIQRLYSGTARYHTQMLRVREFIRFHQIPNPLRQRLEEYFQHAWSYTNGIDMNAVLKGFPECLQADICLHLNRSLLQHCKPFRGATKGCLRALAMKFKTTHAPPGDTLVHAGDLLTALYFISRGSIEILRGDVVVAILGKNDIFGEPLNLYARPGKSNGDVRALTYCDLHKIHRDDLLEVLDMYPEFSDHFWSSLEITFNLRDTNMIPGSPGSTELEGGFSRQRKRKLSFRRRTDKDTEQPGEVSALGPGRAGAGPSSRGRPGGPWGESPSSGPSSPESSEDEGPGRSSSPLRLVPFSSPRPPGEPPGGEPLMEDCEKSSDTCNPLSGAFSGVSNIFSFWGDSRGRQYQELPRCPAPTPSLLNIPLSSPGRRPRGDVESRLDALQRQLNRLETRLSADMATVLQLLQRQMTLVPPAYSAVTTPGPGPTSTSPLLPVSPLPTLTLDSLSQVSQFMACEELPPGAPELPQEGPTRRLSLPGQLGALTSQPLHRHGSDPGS
row,SMILES,"hERG current change (%, negative = inhibition) at 10uM [%]"
1,Cn1cc(S(=O)(=O)CC(=O)Nc2ccc3c(c2)OCCO3)c2ccccc21,9.45
2,OCCC1CN(Cc2cccc(C(F)(F)F)c2)CCN1Cc1ccccc1 (stereo not shown),-46.2
3,NC(=O)NC(=O)CSc1nc2cc([N+](=O)[O-])ccc2n1-c1cccc(C(F)(F)F)c1,-57.7
4,O=C(Oc1c(CN2CCOCC2)cc(Cl)c2cccnc12)c1ccccc1,-19.6
5,CN(C)CCCNC(=O)N1c2ccccc2C=Cc2ccccc21.Cl,22.5
6,O=C(OCn1nnc2ccccc2c1=O)c1cccnc1Cl,8.81
7,CC(=O)Nc1cccc(NS(=O)(=O)c2cccc3nsnc23)c1,4.8
8,C/C=C/C=N\NC(=O)c1ccncc1,21.6
9,CCOC(=O)C1CCN(C(=O)CN(c2cccc(OC)c2)S(=O)(=O)c2ccccc2)CC1,-39.8
10,Cc1c(-c2ccccc2)c(=O)oc2cc(O)ccc12,8.4
11,Nc1cccc(-n2nncc2-c2ccccc2)c1,-11
12,CCN(C(=O)CSc1nnc(-c2ccc(Cl)cc2)n1C)C1CCS(=O)(=O)C1 (stereo not shown),-28.4
13,O=[N+]([O-])c1ccccc1-c1ccc(C(=S)N2CCCCC2)o1,6.69
14,COc1ccc2c(C)c(CC(=O)N3CCN(C(=O)C4COc5ccccc5O4)CC3)c(=O)oc2c1C (stereo not shown),-53.7
15,CC(C)c1nc(Cl)c(C#N)c2c1COC(C)(C)C2,-9.97
16,Cc1cc(C)nc(/N=C(\N)N2CCc3ccccc32)n1,-11.7
17,CCCCn1c(N)c(N(CC(C)C)C(=O)c2cc(Cl)nc3ccccc23)c(=O)[nH]c1=O,10.4
18,Cc1cccc(CN2[C@@H](CC(C)C)COCCS2(=O)=O)c1,-6.53
19,O=C(/C=C/c1ccc(OCCCF)cc1)N1CCN(Cc2ccccc2)CC1,-65.6
20,Cc1ccccc1OCC(=O)NN1C(=O)C2C3C=CC(O3)C2C1=O (stereo not shown),12.3
21,Cc1ccc(N(Cc2cc(=O)[nH]c3ccccc23)C(=O)C(C)C)cc1,-10.8
22,Cc1nc(N)nc(-c2ccccc2O)n1,19.6
23,CC1CCCCN1C(=O)COc1ccccc1F (stereo not shown),19.9
24,O=C1COc2ccc(C(=O)c3ccccc3C(=O)NCc3ccco3)cc2N1,-5.55
25,COc1cc(OC)cc(C(=O)NC(C(=O)NCCN(C)C)C23CC4CC(CC(C4)C2)C3)c1 (stereo not shown),-1.16
26,O=C(C1CC=CCC1)N1CCN(C(=O)C2CC=CCC2)CC1 (stereo not shown),7.03
27,Cc1ccc(N=C2SC(C(=O)Nc3ccc(OC(F)(F)F)cc3)C(N)=C2C(=O)Nc2c(C)cc(C)cc2C)cc1 (stereo not shown),3.81
28,CCc1ccc(OCC(=O)OCC(=O)NCCNC(=O)COC(=O)COc2ccc(CC)cc2)cc1,23.8

row,SMILES,"hERG current change (%, negative = inhibition) at 10uM [%]"
1,O=C(Nc1ccc(Nc2ccncc2)cc1)c1ccc(Nc2ccnc3ccc([N+](=O)[O-])cc23)cc1[N+](=O)[O-],25.6
2,COc1ccc(Cc2nnc(NC(=O)C3CCCO3)s2)cc1 (stereo not shown),3.44
3,O=C(NOC(=O)c1ccccc1F)c1ccc(OC(F)F)cc1,17.5
4,C=CCn1c(SCC(=O)Nc2sccc2C(N)=O)nc2ccc(Cl)cc2c1=O,-1.48
5,N#CCOc1ccc(C2=NO[C@@H]3[C@@H]4C[C@@H]([C@H]5C(=O)N(c6ccc7c(c6)OCO7)C(=O)[C@@H]45)[C@H]23)cc1,-7.36
6,CCOC(=O)CC1C(=O)NCCN1C(=O)c1ccc(C)cc1 (stereo not shown),14.9
7,CCSc1ncnc2c1sc1nc3c(cc12)COC(C)(C)C3,-2.04
8,Cc1cc(C)nc(NC(=O)CN2C(=O)c3ccccc3S2(=O)=O)n1,-2.4
9,Cc1ccc2c(c1)N(CC(=O)N1CCCC1)C(=O)CO2,8.11
10,COCCN(CCOC)C(=O)c1c[nH]c2ccc(S(=O)(=O)N(C)c3ccc(F)cc3)cc2c1=O,-4.82
11,COc1ccc(CC(=O)Nc2nc3ccc(F)cc3s2)cc1S(=O)(=O)N1CCOCC1,-19.4
12,CCOc1cc2c(cc1OC)C(NC(=O)c1ccco1)CC2=O (stereo not shown),7.71
13,CCn1nnc(NC(=O)CSc2ccc(Cl)cc2)n1,-4.8
14,O=C(Nc1ccc(N2CCN(C(=O)c3cccs3)CC2)cc1)c1cccc(F)c1,-62.6
15,COc1ccc(S(=O)(=O)Nc2ccc(C(N)=O)cc2)cc1C(=O)N1CCCCCC1,24.7
16,O=C(c1ccc(C(F)(F)F)cc1)C1CCCN(C(=O)Cn2cnnn2)C1 (stereo not shown),-36
17,CC(NC(=O)C12CC3(C)CC(C)(CC(C)(C3)C1)C2)C(=O)O (stereo not shown),7.52
18,COc1ccc(S(=O)(=O)NC2CCCC2)c(Cl)c1Cl,7.43
19,C[C@@H]1CCC[C@H](C)N1NC(=O)c1ccc(Cl)c(S(N)(=O)=O)c1,11.1
20,COc1ccccc1NC(=O)CS(=O)(=O)c1cn(CC(=O)N2CCCC2)c2ccccc12,-0.692
21,O=C(Nc1ccc(F)c(F)c1)c1ccc(F)c(S(=O)(=O)N2CCOCC2)c1,-36.9
22,O=c1[nH]cnc2scc(-c3ccc(Br)cc3)c12,9.89
23,O=C(NCc1ccccc1F)c1cccs1,-5.38
24,COc1ccc(NC(=O)c2cc([N+](=O)[O-])ccc2N2CCCCC2)cc1,4.86
25,Cc1ccc(S(=O)(=O)NC(C(=O)Oc2ccc3ccc(=O)oc3c2)c2ccccc2)cc1 (stereo not shown),6.89
26,CSc1nnc(Cc2cc(=O)[nH]c(=O)[nH]2)n1-c1cccc(C)c1,-6.81
27,COc1ccc(CNC(=O)c2cc3cc(OC)ccc3oc2=O)cc1,7.37
